ChEMBL document CHEMBL4888484, “Replenishing the malaria drug discovery pipeline: Screening and hit evaluation of the MMV Hit Generation Library 1 (HGL1) against asexual blood stage Plasmodium falciparum ,using a nano luciferase reporter read-out” (2022)
In all, about 150,000 compounds went through this assay and about 540 (0.36%) showed an effect of 50% or more. The list shows a part of the results.

What follows are molecules tested on Plasmodium falciparum (assay: Primary screen in NF54 nanoGlo assay, in single point, at 2uM, 72h; a lower Z score goes with more inhibition). Settings: timepoint 72 hour.
Format: functional, Erythrocyte

Row | Structure (SMILES) | % Inhibition | Z score
1 | COCC[C@H](C)NC(=O)NCCc1ccc(C)cc1 | -8% | 1.38
2 | CCc1nc(C)c(-c2nc3cc(-n4cnnn4)ccc3[nH]2)[nH]1 | -4% | 0.5
3 | CC(C)Nc1cccc(F)c1NC(=O)c1cncn1C | -12% | 1.63
4 | Cc1cnc(N2C[C@H](O)[C@@H](N3CCN(c4ccccn4)CC3)C2)nc1N | -10% | 1.59
5 | CCCn1nc(Cc2ccc(OC)c(OC)c2)nc1-c1cccc(=O)[nH]1 | 0% | 0.03
6 | CC[C@@H]1Oc2cc(S(=O)(=O)N3CCC(C(=O)N4CCCC4)CC3)c(C)cc2NC1=O | 6% | -0.66
7 | O=C(CN1CCOC[C@@H]1CC1CCOCC1)NC1CCCC1 | -9% | 1.71
8 | CN(C)C(=O)CN1C(=O)[C@@H]2CC[C@H]1CN(c1ncc(Cl)cc1F)C2 | 7% | -0.93
9 | O=C1CN(C(=O)Cn2nnc3c(cnn3-c3ccc(F)cc3)c2=O)c2ccccc2N1 | -25% | 2.55
10 | CCCN(CCOC)C(=O)NCc1ccc(C)c(C)c1 | -3% | 0.35
11 | Cn1c(NC(=O)C2CN(c3cc(-n4cccn4)ncn3)C2)cc(=O)[nH]c1=O | -6% | 1.29
12 | CCc1nc2ccccc2c(=O)n1Cc1noc([C@H]2CC(=O)N(c3ccccc3)C2)n1 | -8% | 0.93
13 | c1ccc2c([C@@H]3CCCCCN3)cccc2c1 | 6% | -0.67
14 | Cc1ncsc1CNC(=O)C1CC(OCc2ccccc2)C1 (stereo unspecified) | -14% | 1.66
15 | O=C(NCCc1ccccc1)[C@H]1CCS(=O)(=O)C1 | -13% | 1.84
16 | COc1ccc2cc(C(=O)N(C)CCC(=O)O)sc2c1 | -15% | 2.42
17 | CS(=O)(=O)N(Cc1cccnc1)C1CN(C(=O)NCCc2ccccc2)C1 | -5% | 1.04
18 | CCC[C@H]1CN(C(=O)c2[nH]c3c(C)cc(C)cc3c2C)C[C@@H]1N | -9% | 0.86
19 | COCCc1nc(Cn2cnnn2)n(-c2ccc(F)c(F)c2)n1 | -2% | 0.39
20 | CCCCC(CC)C1C2C(=O)N(c3cccc(C)c3)C(=O)C2ON1c1ccccc1 (stereo unspecified) | -8% | 1.24
21 | CC(=O)N1CCN(C(=O)c2cccc(O)c2C)[C@H]2CS(=O)(=O)C[C@H]21 | -8% | 1.28
22 | CC1CN(C(=O)C2CC2c2ccc(Br)cc2)CCN1 (stereo unspecified) | 5% | -0.66
23 | COC(=O)C1CC(O)C(N(C)Cc2cnn(-c3ccccc3)c2)C1 (stereo unspecified) | 4% | -0.48
24 | CCCn1cc(C(=O)N2CCC(C(=O)c3ccc(F)c(F)c3)CC2)c(C)n1 | -14% | 1.41
25 | Cc1ccc(-c2ccnc(N3CC[C@H]4[C@H](C3)OCc3cnnn34)n2)c(C)n1 | -1% | 0.11
26 | Cc1cc(C(=O)N2CCCS(=O)(=O)C[C@H]2c2ccccc2)no1 | -11% | 1.24
27 | CCOC(=O)C1CCCN1C(C)CC(F)(F)F (stereo unspecified) | -3% | 0.43

Row | Structure (SMILES) | % Inhibition | Z score
28 | Nc1ncc(Cl)c(-c2cnc(-c3ccc(F)cc3)s2)n1 | -8% | 1.12
29 | OCCN(Cc1cnc(C2CC2)o1)C1CC2CCC1C2 (stereo unspecified) | -12% | 1.9
30 | N#Cc1cnn(C(=O)CNC(=O)c2ccc(Br)cc2)c1N | -1% | 0.14
31 | O=C(CCc1cc2n(n1)CCN(C(=O)c1cnccn1)C2)NC1CCCC1 | -2% | 0.38
32 | COCCN1CC2(CCC1=O)CCN(c1cc(C)nc(N)n1)CC2 | -1% | 0.1
33 | COCCN1CC2(CCC1=O)CCN(C(=O)c1cc(Cl)cn1C)CC2 | -2% | 0.48
34 | Cc1ccc(O)c(C(=O)N2CCC3(CC2)C[C@H](O)CNC3=O)c1 | -14% | 2.59
35 | COc1ccc(OC)c(CNC(=O)C2CCN(c3ccc(-c4cccc(F)c4)nn3)CC2)c1 | -5% | 0.64
36 | Cn1cnnc1CN(Cc1cccnc1)Cc1ccco1 | -6% | 0.82
37 | CS(=O)(=O)NCCCNc1c(F)cccc1C(F)(F)F | -5% | 0.86
38 | Cc1cc(F)ccc1NC(=O)c1cc(-c2ccc[nH]2)n[nH]1 | -6% | 0.74
39 | COCC1(NC(=O)C2CCC(F)(F)C2)COc2ccccc2C1 (stereo unspecified) | 3% | -0.41
40 | Cc1ccc(NC(=O)CN2CCC(CNC(=O)[C@@H]3CCC(=O)N3)CC2)cc1C | -1% | 0.18
41 | Cn1ccnc1CN1C(=O)CO[C@H]2CN(Cc3ccccc3)C[C@H]21 | -11% | 1.41
42 | Cn1cc(CNC[C@]2(COc3ccc(S(C)(=O)=O)cc3)C[C@@H](O)[C@@H](O)C2)c2ccccc21 | -1% | 0.16
43 | Cc1c(C(=O)N2CC(C)(C)C2(C)C)cc(Br)cc1S(N)(=O)=O | -5% | 0.82
44 | O=C(C1CCN(C2CCN(CCCc3ccccc3)CC2)CC1)N1CCCC[C@@H]1CO | -5% | 0.68
45 | Cc1cc(=O)c(C(=O)N(Cc2ccncc2)CC2CCCCC2)c[nH]1 | -3% | 0.3
46 | Cc1cc(C)cc(OCC(=O)Nc2ccn(C)c(=O)n2)c1 | 8% | -0.91
47 | Cc1nnc(NC(=O)N[C@@H](C)c2ccncc2)s1 | -14% | 2.71
48 | COCCN1CCN(Cc2cnc(N(C)C)nc2)[C@H]2CS(=O)(=O)C[C@H]21 | -4% | 0.85
49 | CC(C)NC(=O)CN1C(=O)CN(C(=O)NCc2ccc(F)cc2)c2ccccc21 | 7% | -0.97
50 | CCn1cc(C(=O)N(C)[C@@H](C)c2ccccc2)c(-c2cnn(C)c2)n1 | 5% | -0.66
51 | Cc1ncn(CCNC(=O)c2c[nH]c(=O)c(Cl)c2)c1C | 6% | -1.04
52 | COc1ccc(NC(=O)N(C)C[C@H](O)COCCOC(C)C)cc1OC | 8% | -1.46
53 | CC(C)(C)Cc1nc(-c2cccc(C(=O)N3CC(O)(C4CC4)C3)c2)no1 | -3% | 0.63
